Experimental data published in the supplement of paper PMC10369915.
Some of the results follow. No stated cut-off is given here; in the data, active = 3.2 or more and inactive = the rest. Most of these values are background signal.

B1: CLNS1A_Y214 (peptide)
chain: DSIRDYEDGME
B2: CKM_Y125_L127V (peptide)
chain: DLDPNYVVSSR
B3: CRX_Y67 (peptide)
chain: QYPDVYAREEV
B4: CRX_Y67_V66I (peptide)
chain: QYPDIYAREEV
B5: CLCA1_Y665_Y661H (peptide)
chain: RHFTTYDTNGR
B6: CHST6_Y358_YF (peptide)
chain: LQLLGYRPVFS
B7: CLCA1_Y661 (peptide)
chain: GVYSRYFTTYD
B8: CPS1_Y634 (peptide)
chain: WKEIEYEVVRD
B9: CPS1_Y1491_Y1491H (peptide)
chain: KSLFHHRQYSA
B10: CNBD1_Y70 (peptide)
chain: TFMKQYPKVFL
B11: CPO_Y278_K273N_YF (peptide)
chain: NFGTNYRVGSS
B12: CLCNKB_Y138_N143H (peptide)
chain: VVLEDYLDIKH
B13: CPS1_Y309 (peptide)
chain: AGAKTYKMSMA
B14: CLK1_Y305_P307S_YF (peptide)
chain: DFTEAYNSKIK
B15: CNTN4_Y180_T176P (peptide)
chain: EPGNLYIAKVE
B16: CRELD1_Y328_R329C (peptide)
chain: NTEGGYCCICA
B17: CRLF1_Y272_F268S (peptide)
chain: LSQAKYQIRYR
B18: CLCA1_Y147_R152K (peptide)
chain: KKLAEYGPQGK
B19: CLRN1_Y171_I168N (peptide)
chain: EKNANYKEGTY

These binders were tested against SHP2 C-SH2 domain E139D (assay: enrichment score (SH2-bound / input frequency) (ratio); bacterial display of known human phosphotyrosine sites (pTyr-Var adds point mutants) read by sequencing; higher = stronger binding; tyrosines were phosphorylated by kinases first). Settings: peptide library: pTyr-Var.
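Further: displayed peptides selected on beads carrying the immobilized SH2 domain, with library peptides lacking any tyrosine serving as negative controls.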

Enrichment score, inactive:
B1 0.415
B2 0.627
B3 0.66
B4 0.865
B5 0.823
B6 0.684
B7 0.921
B8 0.886
B9 0.853
B10 0.902
B11 0.737
B12 1.23
B13 0.731
B14 0.741
B15 1.15
B16 0.846
B17 0.579
B18 0.638
B19 0.462

These binders were tested against SHP2 C-SH2 domain wild-type in the same assay as above. Settings: peptide library: pTyr-Var.

Enrichment score, inactive:
B1 0.348
B2 0.64
B3 0.46
B4 0.856
B5 0.689
B6 1.12
B7 1.16
B8 0.799
B9 0.687
B10 0.964
B11 0.806
B12 0.874
B13 0.651
B14 1.01
B15 1.07
B16 0.735
B17 0.78
B18 0.533
B19 0.348

Each binder was assayed against SHP2 N-SH2 domain L43F in the same assay as above. Settings: peptide library: pTyr-Var.

Enrichment score, inactive:
B1 0.459
B2 0.684
B3 0.532
B4 1.03
B5 0.775
B6 0.7
B7 1.09
B8 0.748
B9 0.541
B10 0.797
B11 0.751
B12 0.972
B13 0.749
B14 0.792
B15 0.915
B16 0.933
B17 0.591
B18 0.602
B19 0.485

What follows are binders tested against SHP2 N-SH2 domain T42A in the same assay as above. Settings: peptide library: pTyr-Var.

Enrichment score, inactive:
B1 0.365
B2 0.579
B3 0.514
B4 0.82
B5 0.626
B6 1.05
B7 1.08
B8 0.759
B9 0.582
B10 0.888
B11 0.638
B12 0.577
B13 0.843
B14 0.748
B15 0.642
B16 0.904
B17 0.462
B18 0.74
B19 0.395

What follows are binders tested against SHP2 N-SH2 domain T52S in the same assay as above. Settings: peptide library: pTyr-Var.

Enrichment score, inactive:
B1 0.413
B2 0.727
B3 0.515
B4 0.708
B5 0.619
B6 1.01
B7 1.05
B8 0.707
B9 0.699
B10 1.1
B11 0.674
B12 0.837
B13 0.792
B14 0.842
B15 0.869
B16 0.85
B17 0.696
B18 0.63
B19 0.367

Each binder was assayed against SHP2 N-SH2 domain wild-type in the same assay as above. Settings: peptide library: pTyr-Var.

Enrichment score, inactive:
B1 0.422
B2 0.557
B3 0.711
B4 0.982
B5 0.809
B6 1
B7 0.823
B8 0.882
B9 0.621
B10 0.804
B11 0.658
B12 0.885
B13 0.933
B14 1.09
B15 1.01
B16 0.896
B17 0.865
B18 0.853
B19 0.489
